Test results as given in PubChem BioAssay AID504832 (National Center for Advancing Translational Sciences (NCATS), 2011).
The whole screen tested about 310,000 compounds, of which about 18,000 (5.8%) were called active. Inconclusive means that the source gave no clear call. Such entries were picked first, then a sample of the others. Calls follow the shape of the dose curve; as a rule, active = well fitted inhibition curve with a large enough effect; inconclusive = small, poorly fitted or top-dose-only effect, or another doubt; inactive = no such curve, though single readings can be large or run the other way. No potency is given beside an inconclusive call; the fits are too rough.

Experiment: Primary qHTS for delayed death inhibitors of the malarial parasite plastid, 48 hour incubation
Details: P. falciparum luciferase growth in erythrocytes; series mostly up to 28.7 µM
Procedure, shortened: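 Here the parasites carry a stable luciferase gene and grow inside erythrocytes in Albumax-based RPMI medium with compound for one erythrocytic cycle. Activity is scored as loss of luminescent signal.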
% is scaled to controls: 0 for no effect and ±100 for the full control effect; potency is read from the fitted curve at half-maximal effect; tags tell the direction and shape of the fitted curve.

**Q.** Which Potency does the source give for COc1ccc(NC(=O)C2CCCN2S(=O)(=O)c2cccc3nsnc23)c(OC)c1 (stereo unspecified) here?
**A.** inconclusive [inhibitor, single point]

**Q.** With COc1ccc(CC(=O)Nc2ccc(N3CCN(c4ccc(OC)cc4)CC3)c(C#N)c2)cc1 as the compound, how does the Potency read?
**A.** inconclusive [inhibitor, partial curve, poor fit]

**Q.** With Cc1ccc(Oc2ccccc2/C=C2\SC(=O)N(C)C2=O)cc1 as the compound, how does the Potency read?
**A.** inconclusive [inhibitor, single point]

**Q.** Which Potency does the source give for CCCCN(C(=O)c1cccc(N2C(=O)c3ccccc3C2=O)c1)c1c(N)n(CC(C)C)c(=O)[nH]c1=O here?
**A.** inconclusive [inhibitor, single point]

**Q.** Which Potency does the source give for COc1ccc(C)cc1N1CC(C(=O)OCc2nc(N)nc(Nc3ccccc3C)n2)CC1=O (stereo unspecified) here?
**A.** inactive

**Q.** For Cc1ccc(-n2c(C)cc(/C=N\NC(=O)CC(=O)NC(C)C)c2C)cc1, which Potency is on record?
**A.** inconclusive [inhibitor, partial curve, poor fit]

**Q.** With CCC(C)C(=O)Nc1c2c(nc3c1CCC3)CCCC2 (stereo unspecified) as the compound, how does the Potency read?
**A.** inactive

**Q.** With Cc1cccc(NC(=S)N(CCCN2CCOCC2)Cc2cn(C)c3ccccc23)c1 as the compound, how does the Potency read?
**A.** inactive

**Q.** For CCCCn1c(SCC(=O)c2ccccc2)nc2ccsc2c1=O, which Potency is on record?
**A.** inconclusive [inhibitor, single point]

**Q.** Which Potency does the source give for CCCc1cc(=O)[nH]c(SC(CC)C(=O)Nc2ccccc2C#N)n1 (stereo unspecified) here?
**A.** inconclusive [inhibitor, partial curve, poor fit]

**Q.** With CCOC(=O)C1(CCCc2ccccc2)CCN(C(=O)CN2C(=O)CSC2=O)CC1 as the compound, how does the Potency read?
**A.** inconclusive [inhibitor, partial curve]

**Q.** For CCOC(=O)CN(c1cc([N+](=O)[O-])ccc1OC)S(C)(=O)=O, which Potency is on record?
**A.** inactive

**Q.** With COc1cccc(/C=C(\C#N)c2nc3ccccc3[nH]2)c1OCC(=O)O as the compound, how does the Potency read?
**A.** inactive

**Q.** With COc1ccc(/C=C(\C#N)C(=O)Nc2ccccn2)cc1 as the compound, how does the activity change, negative = inhibition read?
**A.** inactive: -11.2% [at 0.00184 µM]

**Q.** Which Potency does the source give for c1ccc(CCn2nnnc2C(c2cccs2)N2CCN(Cc3ccc4c(c3)OCO4)CC2)cc1 (stereo unspecified) here?
**A.** inconclusive [inhibitor, single point]

**Q.** With CCN(CC(=O)Nc1ccc2c(c1)OCCO2)Cc1cc(=O)n2ccsc2n1 as the compound, how does the Potency read?
**A.** inactive

**Q.** For Cc1cc(C(=O)CSc2nnc(-c3ccc(Cl)cc3)n2C)c(C)n1CC1CCCO1 (stereo unspecified), which Potency is on record?
**A.** inconclusive [inhibitor, partial curve]

**Q.** With COc1cc2c(cc1OC)C1O[C@](CCCCN3C(=O)c4ccccc4C3=O)(C2)OC2=C1C(=O)CCC2 as the compound, how does the Potency read?
**A.** active: 1.51 µM

**Q.** Which Potency does the source give for c1ccc2c3c([nH]c2c1)C1(CCCCC1)NCC3 here?
**A.** inconclusive [inhibitor, full curve, poor fit]

**Q.** Which Potency does the source give for O=C(NCc1cccnc1)c1ccc(Cl)c(S(=O)(=O)N2CCCCCC2)c1 here?
**A.** inconclusive [inhibitor, full curve]

**Q.** For COc1cccc(-c2cc(C(F)(F)F)n3nc(N)nc3n2)c1, which Potency is on record?
**A.** inactive

**Q.** With COc1cccc(Nc2nn3c(=O)c4ccccc4nc3s2)c1 as the compound, how does the Potency read?
**A.** inconclusive [activator, full curve]

**Q.** Which Potency does the source give for CCN(CC)S(=O)(=O)c1ccc2c(c1)c(=O)c(C(=O)N1CCN(c3ccccn3)CC1)cn2C here?
**A.** inactive

**Q.** With Cc1[nH]n(-c2ccccc2)c(=O)c1C(C[N+](=O)[O-])c1ccc(Br)cc1 (stereo unspecified) as the compound, how does the Potency read?
**A.** inconclusive [inhibitor, single point]

**Q.** Which Potency does the source give for Cc1cccc(C(=O)Oc2ccc(/C=N/NC(=O)c3ccccc3O)cc2)c1 here?
**A.** inconclusive [inhibitor, single point]

**Q.** For C/C(=N/Nc1nc(-c2ccc(Cl)cc2)cs1)c1cccs1, which Potency is on record?
**A.** inconclusive [inhibitor, single point]

**Q.** Which Potency does the source give for CCOC(=O)c1cccc(-[n+]2c(-c3ccccc3)cc(-c3ccccc3)cc2-c2ccccc2)c1 here?
**A.** active: 1.85 µM

**Q.** Which Potency does the source give for CN(C)C(=O)c1ccc(NC(=O)CN2C(=O)NC3(CCCc4ccccc43)C2=O)cc1 (stereo unspecified) here?
**A.** inconclusive [inhibitor, single point]

**Q.** With O=c1[nH]c(/C=C2\C=Nc3ccccc32)c(O)n1Cc1ccccc1F as the compound, how does the Potency read?
**A.** inconclusive [inhibitor, single point]

**Q.** Which Potency does the source give for O=C(CSc1nnc(-c2ccc(S(=O)(=O)N3CCCC3)cc2)o1)NCC1CCCO1 (stereo unspecified) here?
**A.** inconclusive [inhibitor, partial curve, poor fit]

**Q.** For C=C1CCC2[C@](C)(CO)C(O)CC[C@]2(C)C1C/C=C1/C(=O)OCC1O (stereo partly specified), which Potency is on record?
**A.** inconclusive [inhibitor, single point]

**Q.** With CCc1cc(C(=O)Nc2ccc(S(=O)(=O)NC3=NCCCCC3)cc2)sc1C as the compound, how does the Potency read?
**A.** inconclusive [inhibitor, partial curve]

**Q.** For Cc1nnc(NC(=O)C(C)Sc2nnc(-c3ccco3)n2C)s1 (stereo unspecified), which Potency is on record?
**A.** inactive

**Q.** With O=S(=O)(c1ccccc1F)N1CCc2ccccc2C1 as the compound, how does the Potency read?
**A.** inactive

**Q.** With CC(NCc1cccc(OCc2ccccc2)c1)C(O)c1ccccc1 (stereo unspecified) as the compound, how does the Potency read?
**A.** inconclusive [inhibitor, full curve]

**Q.** For Cc1ccc(C(=O)NCC(=O)OCC(=O)c2ccc3c(c2)NC(=O)CO3)cc1C, which Potency is on record?
**A.** inconclusive [inhibitor, partial curve, poor fit]

**Q.** With CC(C)(C)n1cnnc1Sc1ncccc1[N+](=O)[O-] as the compound, how does the Potency read?
**A.** inactive

**Q.** With CNC(=S)Nc1ccc(N2CCN(c3ccc(C(F)(F)F)cn3)CC2)nc1 as the compound, how does the Potency read?
**A.** inconclusive [inhibitor, single point]

**Q.** Which Potency does the source give for COCCn1c(=O)c2c(nc3n2CCCN3CCc2ccc(OC)c(OC)c2)n(C)c1=O here?
**A.** inconclusive [inhibitor, partial curve, poor fit]

**Q.** For Cc1ccsc1C(=O)NC(C)c1ccc2c(c1)OCO2 (stereo unspecified), which Potency is on record?
**A.** inactive

**Q.** For c1csc(-c2nn3c(C4COc5ccccc5O4)nnc3s2)c1 (stereo unspecified), which Potency is on record?
**A.** inconclusive [inhibitor, single point]

**Q.** For O=C(OCCN(C1=NS(=O)(=O)c2ccccc21)c1ccccc1Cl)c1ccc(Cl)cc1, which Potency is on record?
**A.** inconclusive [inhibitor, single point]

**Q.** For Clc1ccc(CC[C@H](Cn2ccnc2)Sc2c(Cl)cccc2Cl)cc1, which Potency is on record?
**A.** active: 5.73 µM

**Q.** With Cc1cc(C)c([N+](=O)[O-])cc1NC(=O)CCSc1ccccc1Cl as the compound, how does the Potency read?
**A.** inconclusive [inhibitor, partial curve, poor fit]

**Q.** Which Potency does the source give for Cc1ccc(N2C(=O)NC(=O)C3(Cc4ccccc4N4CCN(c5ccccc5)CC43)C2=O)cc1 (stereo unspecified) here?
**A.** inconclusive [inhibitor, single point]

**Q.** Which Potency does the source give for Cc1ccc(CNC(=O)CN(c2cccc([N+](=O)[O-])c2)S(=O)(=O)c2ccccc2)cc1 here?
**A.** inconclusive [inhibitor, single point]

**Q.** With Clc1ccc(-c2csc3ncnc(Cl)c23)cc1 as the compound, how does the Potency read?
**A.** inconclusive [inhibitor, full curve]

**Q.** Which Potency does the source give for COc1cccc(/C=C2/CN(C)CC3=C2OC(N)=C(C#N)C3c2cccc(OC)c2)c1 (stereo unspecified) here?
**A.** active: 13.1 µM

**Q.** For Cc1cc2cc3c(=O)[nH]c(=O)[nH]c3nc2cc1C, which Potency is on record?
**A.** inconclusive [inhibitor, full curve, poor fit]

**Q.** Which Potency does the source give for COc1ccccc1NC(=O)c1sc(Cl)nc1C here?
**A.** inconclusive [inhibitor, partial curve]

**Q.** Which Potency does the source give for O=c1[nH]c(=O)n(Cc2ccccc2)c2nc(-c3ccc(Oc4ccc(F)cc4)c([N+](=O)[O-])c3)n(CCO)c12 here?
**A.** active: 13.1 µM

**Q.** Which Potency does the source give for CCCCCCn1c(N2CCC(C)CC2)nc2c1c(=O)[nH]c(=O)n2C here?
**A.** inconclusive [inhibitor, partial curve, poor fit]

**Q.** Which Potency does the source give for COc1ccc(OC)c(S(=O)(=O)N2CCC(C(=O)N3CCN(c4ccc(F)cc4)CC3)CC2)c1 here?
**A.** inconclusive [inhibitor, single point]

**Q.** Which Potency does the source give for COc1cc(/C=N/NC(=S)NC2CC3CC2C2C=CCC32)ccc1O (stereo unspecified) here?
**A.** active: 8.28 µM

**Q.** For CCCCN(C)C(=O)C1CCN(Cc2ccc(OCc3ccccc3)cc2)CC1, which Potency is on record?
**A.** inconclusive [inhibitor, partial curve, poor fit]

**Q.** Which Potency does the source give for C=CCn1c(SCC(=O)c2c(N)n(C3CC3)c(=O)[nH]c2=O)nnc1-c1ccoc1C here?
**A.** active: 9.28 µM

**Q.** Which Potency does the source give for COc1cc2c(cc1NC(=S)NC(=O)/C=C/c1ccc(OC)c(OC)c1)oc1ccccc12 here?
**A.** inactive

**Q.** Which Potency does the source give for Cc1ccc(N2C(N)=C(C#N)C(c3cccnc3)C3=C2CCCC3=O)cc1 (stereo unspecified) here?
**A.** inconclusive [inhibitor, partial curve, poor fit]

**Q.** With Cc1ccc(S(=O)(=O)Nc2cccc(C(=O)NCC(C)(C)N3CCOCC3)c2)cc1F as the compound, how does the Potency read?
**A.** inactive

**Q.** With COc1ccc(-c2csc(NC(=O)C3CC(=O)N(Cc4ccccc4)C3)n2)cc1OC (stereo unspecified) as the compound, how does the Potency read?
**A.** inconclusive [inhibitor, partial curve]

**Q.** With COC(=O)C1=C(c2ccc(Cl)c(C(F)(F)F)c2)C[C@@H]2CC[C@H]1N2C(=O)NC1CCCCC1 as the compound, how does the Potency read?
**A.** inconclusive [inhibitor, single point]

**Q.** With CC(C)Oc1ccc(N2CC(C(=O)NC3=NCCS3)CC2=O)cc1 (stereo unspecified) as the compound, how does the Potency read?
**A.** inactive

**Q.** For COc1cc(-c2c(-c3ccc4c(c3)OCO4)noc2-c2ccsc2)ccc1F, which Potency is on record?
**A.** inconclusive [inhibitor, partial curve, poor fit]

**Q.** For CCN1CCN(S(=O)(=O)c2ccc(Cl)c(C(=O)N(CC)Cc3ccccc3)c2)CC1, which Potency is on record?
**A.** inconclusive [inhibitor, single point]

**Q.** Which Potency does the source give for O=C1NC(=S)S/C1=C/c1ccc(N2CCOCC2)o1 here?
**A.** inactive

**Q.** For COc1ccc(NC(=O)Cn2nnc(-c3ccccc3NC(=O)c3cccs3)n2)cc1, which Potency is on record?
**A.** active: 1.85 µM
